Among all 360,000 compounds or so, about 6,000 (1.7%) were called active. The shares of active, inactive and inconclusive entries below differ from those in the screen. Calls follow the shape of the dose curve; as a rule, active = well fitted cell-killing curve with a large enough effect; inconclusive = small, poorly fitted or top-dose-only effect, or effect the other way; inactive = flat fitted curve, though single readings scatter. No potency is given beside an inconclusive call; the fits are too rough.
assay: qHTS for induction of synthetic lethality in tumor cells producing 2HG: qHTS for the HT-1080-NT fibrosarcoma cell line; conditions: HT-1080-NT fibrosarcoma viability, CellTiter-Glo ATP luminescence, 48 h; activity, negative = less viability: at 46.1 µM (top of the series) unless noted;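 also: NT is the 2HG producing partner of a matched IDH1 knockdown line; nearly all actives have a fitted effect of over 55% in size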;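 as to activity, negative = less viability: 0% = DMSO-treated cells and -100% = media-only wells without cells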
Summary of the method: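 Luminescent CellTiter-Glo readout after 48 hours of compound exposure at 37 degrees C defined viability of HT-1080-NT cells. Activity was normalized to DMSO wells and cell-free media wells; concentration-response curves were fitted and assigned curve classes.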
Potency is read from the fitted curve at half-maximal effect; tags tell the direction and shape of the fitted curve.

Row | Compound | activity, negative = less viability | Potency
1 | CC(=O)N1CCSc2ccc(S(=O)(=O)Nc3cccc(C)c3)cc21 | inactive: -6.7% | 
2 | COc1ccc(Cl)cc1-c1cc(C(=O)NCc2cccc(C(F)(F)F)c2)[nH]n1 |  | inconclusive [cytotoxic, single point]
3 | Cc1cc(C(=O)N/N=C/C=C/c2cccc([N+](=O)[O-])c2)n[nH]1 |  | inconclusive [rising, partial curve]
4 | Cc1ccc(-c2ccc(C)c(N)c2C)c(C)c1N | inactive: -0.46% | 
5 | CC(=O)Nc1c(-c2ccc(Cl)cc2)c(=O)c2ccccc2n1C | inactive: -1.84% | 
6 | CCOc1ccc(C(=O)NC(=S)Nc2ncccc2C)cc1[N+](=O)[O-] | inactive: 3.39% | 
7 | COc1ccc2sc(-c3ccc(SC)cc3)c(-c3ccc(O)cc3)c2c1 |  | inconclusive [cytotoxic, single point]
8 | O=C(O)c1cc(S(=O)(=O)N2CCCCC2)ccc1N1CCCC1 | inactive: 1.93% [at 9.24 µM] | 
9 | S=c1nc[nH]c2c1ncn2C1CCCO1 (configuration not stated) |  | active: 4.61 µM
10 | CCN(CC)C(C(=O)Nc1ccc(C(C)C)cc1)c1ccc2c(c1)OCO2 (configuration not stated) |  | inconclusive [cytotoxic, single point]
11 | O=C(NCc1c(Cl)cccc1Oc1ccccc1)c1ccccc1 | inactive: -18% | 
12 | O=C(CN1CCOCC1)N/N=C/c1c(O)ccc2ccccc12 |  | inconclusive [cytotoxic, single point]
13 | CCOC(=O)C(C)(C)N(Cc1ccccc1C)S(=O)(=O)c1ccc(Cl)c([N+](=O)[O-])c1 |  | inconclusive [cytotoxic, single point]
14 | CCC(=O)NC(=S)Nc1cccc(NC(=O)CC)c1 | inactive: 1.84% | 
15 | COc1ccc(C(C)(C)C)cc1NC(=O)C1CC(=O)N(C2CCCC2)C1 (configuration not stated) | inactive: 8.96% | 
16 | COc1ccc(-c2cc(C)no2)cc1S(=O)(=O)N(C)c1ccc(C)cc1 |  | inconclusive [cytotoxic, partial curve]
17 | Cc1csc(NC(=O)c2cn3ccccc3n2)n1 |  | inconclusive [cytotoxic, partial curve]
18 | O=c1[nH]c(=O)c2[nH]c(=S)[nH]c2[nH]1 |  | inconclusive [rising, full curve]
19 | COc1cc(C(=O)Nc2nc(-c3ccc(Cl)cc3)c(C)s2)ccc1OCC(=O)Nc1ccc(F)cc1 |  | inconclusive [cytotoxic, full curve]
20 | O=C(/C=C/c1ccco1)Nc1ccc2c(c1)OCO2 |  | active: 13 µM
21 | CC(OC(=O)CNC(=O)c1ccc2ccccc2c1)C(=O)N(C)C1CCCCC1 (configuration not stated) | inactive: 6.1% | 
22 | COCC(C)NC(=O)CCS(=O)(=O)c1nc(-c2ccc(OC)cc2)cc(C(F)(F)F)n1 (configuration not stated) |  | inconclusive [cytotoxic, single point]
23 | CC(C)C(NC(=O)c1ccco1)C(=O)NC1CCCCCC1 (configuration not stated) | inactive: -4.69% | 
24 | O=C1/C(=C\c2cccnc2)CCc2ccccc21 |  | inconclusive [cytotoxic, single point]

Row | Compound | activity, negative = less viability | Potency
25 | Cc1cccc(C)c1-n1c(C)cc(/C=N\NC(=O)CC(=O)NC2CCCCC2)c1C |  | inconclusive [cytotoxic, single point]
26 | COc1ccc(Nc2nc(N)nc(CN3CCC(Cc4ccccc4)CC3)n2)cc1 |  | inconclusive [cytotoxic, single point]
27 | COC(=O)c1cc(Cl)c(NC(=O)c2ccc(C(C)(C)C)cc2)cc1OC |  | inconclusive [cytotoxic, single point]
28 | COc1ccc(CCNCc2ccc(-c3ccccc3)cc2)cc1OC |  | active: 23.1 µM
29 | CCCCN(C)CCCNC(=O)c1cc(-c2cccs2)nc2ccccc12 |  | inconclusive [cytotoxic, partial curve]
30 | Cc1ccc(NC(=O)c2ccccc2O)cc1 |  | inconclusive [cytotoxic, single point]
31 | COc1ccc(NC(=O)CCc2nc3ccccc3s2)c(OC)c1 | inconclusive: -0.991% [cytotoxic] | 
32 | CC(=O)Nc1cccc(C(=O)NCC2(N3CCCCC3)CCCCC2)c1 |  | inconclusive [rising, partial curve, poor fit]
33 | CCN(CC)CCCN=C1N[C@@H](c2cccc(F)c2)C(C(=O)OC)=C(C)N1Cc1ccccc1 |  | inconclusive [cytotoxic, single point]
34 | c1ccc(CNc2nc(-c3ccccn3)nc3ccccc23)cc1 |  | inconclusive [cytotoxic, partial curve]
35 | O=C(CCl)N(C1CCCC1)C1CCS(=O)(=O)C1 (configuration not stated) |  | inconclusive [cytotoxic, single point]
36 | N#Cc1c(-c2ccccc2)nc2n(c1=O)CCS2 | inactive: 1.85% | 
37 | Cc1ccc(C(C(=O)NCc2ccco2)N(C(=O)CNC(=O)c2cccs2)c2c(C)cc(C)cc2C)cc1 (configuration not stated) | inactive: 8.25% | 
38 | CC(C)C(=O)NC(=S)Nc1ccc(S(=O)(=O)NC2CCCCC2)cc1 | inactive: -8.27% | 
39 | COC(=O)c1ccc(CSC2=NCCS2)cc1 | inactive: 13.8% | 
40 | O=C(Nc1nc2c(F)cc(F)cc2s1)c1ccccn1 |  | inconclusive [cytotoxic, partial curve, poor fit]
41 | COc1cnc(-c2ccccn2)nc1Sc1cccc(Cl)c1 |  | inconclusive [cytotoxic, single point]
42 | CC(C)(C)S(=O)N1Cc2cc(C(=O)NCCCN3CCOCC3)nc(-c3cccc(-c4cc5ccccc5o4)c3)c2[C@@H]1CCO (some centres not stated) |  | inconclusive [cytotoxic, single point]
43 | CCOC(=O)C1CCN(Cc2ccc(O)c3ncccc23)CC1 |  | inconclusive [cytotoxic, single point]
44 | CSc1nnc(C)c(/C=C/Nc2ccc(F)cc2)n1 | inconclusive: -30.5% [cytotoxic] | 
45 | CCC(C(=O)N1CCN(c2cccc(Cl)c2)CC1)c1ccccc1 (configuration not stated) |  | inconclusive [cytotoxic, single point]
46 | Cc1ccc(CNC(=O)C2CCN(S(=O)(=O)c3ccc(Br)s3)CC2)cc1 | inactive: -3.65% | 
47 | Cc1cccc(NC(=O)c2nc[nH]c2C(=O)NCCCCCNC(=O)OC(C)(C)C)c1 |  | active: 25.9 µM

— PubChem BioAssay AID686970 (National Center for Advancing Translational Sciences (NCATS), 2013)
